Source: the supplement of paper PMC11417369
This is one part of the list.

The sequences below were run on PfSIP2 AP2 domain 1 (GST-tagged) (assay: gcPBM binding intensity (ln(normalized median fluorescence intensity)); higher = stronger DNA binding).
In short: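 The highest Masliner-normalised natural-log median intensity across replicate spots of either probe orientation is reported as binding intensity. GST-tagged P. falciparum DNA-binding domains expressed in E. coli were applied for 1 h to an Agilent 4 × 180k array of primer-extended double-stranded 36-bp intergenic genomic probes plus negative controls, and bound protein was detected with Alexa488 anti-GST antibody and scanned at 488 nm.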

Sequence | gcPBM binding intensity (ln)
AAAAAAAAAAAAATCACACATAATATAGAATATGTA [CACACA_site4993] | 6.9
ATATATATATATATAACACACGCAAAAAAATTAAAT [CACACA_site8395] | 9.57
AACTTAAAAAATAAATGTACATAAATATAAACATAT [XGTACX_site2987] | 7.04
TATTTAAATTTTAAGTGTACATATTTATTTATATCT [XGTACX_site6545] | 7.09
TCACTATAATAATTTACACACATTTTAAGAAAATGT [CACACA_site3530] | 7
AAAATGAATAAAAATACACACATATCTGTTATTCTC [CACACA_site5474] | 6.76
GAATATTAATTCATACGTACTTATATATAAGTATAT [XGTACX_site3707] | 7.09
TATAAAAATGGGCACACACACACATATATATATTTA [CACACA_site1527] | 7
ATTTTTTTTTTTTTTTTTTTTTTATTCTTGTAATCT [CACACA_negctrl_site1039] | 6.77
CCTTTTTATCTTTTTGTGCACAGACCTTTTTTAAAT | 9.75
ATGTAAGTTGTGCATTCACACACATATATATATATA [CACACA_site9086] | 9.26
ATATAATAATAAAGACGTACAAATGTATATATATAC [XGTACX_site3123] | 7.07
AAAAAAAAAAAAAACATACACACAATAAAATAGGGG [CACACA_site2398] | 7.49
CATTTTTTATTTCCTTGTACGAATAAAATATATTTA [XGTACX_site6844] | 7.13
AATTTAATATAATGCACACATAAAACAAAAACAAAA [CACACA_site529] | 7.62
TACGTAAATGTGTGTGTGCACGTTATATATTAATAT [GTGCAC_site9976] | 9.21
TATTATCGTTCTCATACACACAAAATATACATACAC [CACACA_site2643] | 7.37
TTATAATAATATAATACATGCATATATATTTAAATA [TGCATGCA_site903] | 6.9
ATAAACATATAAAAAGTGCATATTCATATATCTACT | 8.7
ATGGCCTCATTTGGGACACACAACATAAAATATATA [CACACA_site753] | 6.88
AATACACTAAACAAAAGTACAAAAATATTCTACAAA [XGTACX_site5162] | 6.95
AAATATATTTTATGTACACACAAAATTAAGGGATAT [CACACA_site4881] | 7.36

Sequence | gcPBM binding intensity (ln)
TGTTAATTATAAATTTGTACTTATTTTTACAAAATA [XGTACX_site6598] | 6.97
GTAAAATATATAAAATGTACATATATTATATATATA [XGTACX_site489] | 7.96
CATTTAAAAGATAAAACACACATACTAATAAAAAAC [CACACA_site5417] | 7.24
TTTCTTTATTAAAATATTTTACATATATAATATACG [TGCATGCA_negctrl_site564] | 7.21
ACATATATTATTATATGTACATATATTAATTATATA [XGTACX_site3400] | 7.28
ATCATTTTTAAAGGAACACACAAAAAAAATTAAAAT [CACACA_site4878] | 7
ACTCTCTTATATTAAACACACATATATATCTGTATA [CACACA_site5489] | 7.4
CTTCTCTTTTTTATCATGCACTTTTTGTATAATAAT [GTGCAC_site9834] | 8.7
ATTTATATGTGGAGCAGTACGCACTCTCACAATTAA [XGTACX_site7252] | 8.2
TAAAAATTATATATCACACATATATGTCAGTATACA [CACACA_site4624] | 6.91
GATGTTCATCACTACACACACAAAGAAATATATATA [CACACA_site2684] | 7.38
AAAGAAAAAAAATATAAAAAATAAAAAATAAAACAA [CACACA_negctrl_site374] | 6.81
TTGTATTTCCTTAGGAGTACACATAAATAAGTAAAT [XGTACX_site6677] | 7.42
TAATATATGTATATATGTACATATAAATGTTATAGA [XGTACX_site2721] | 7.05
TTGGTATAAAATTATAGTACATAAGGTAAATATAAA [XGTACX_site4698] | 7.09
GAAAAGCATAGATGCACACATATATATATATATATA [CACACA_site2169] | 9.6
GTGTTAATTTTAAATTGTACAAAATTTATATGATTT [XGTACX_site348] | 7.19
ATATACTTTTTTTTTTTTTTTTTAACGTTATTTATG [CACACA_negctrl_site1277] | 6.91
AAAATATATGAAAACAGTACATATAAAAATTAAAAA [XGTACX_site2594] | 6.88
TTACACATATATATAAATATATATAAATATATATAT [CACACA_negctrl_site150] | 8.19
ATTTTTATACGTTTTTTTTTTTTTTTTTTTTATTTA [CACACA_negctrl_site1142] | 6.71
ATTAATTTTGGTTCATGTACATAAGAAATAAACTCT [XGTACX_site4534] | 7.23

Sequence | gcPBM binding intensity (ln)
TATTTGTTTGAATTTTTTTTTTTTTTTTTTTATGTG [CACACA_negctrl_site966] | 6.78
TACAGACAGAAATGCACACACATATATATATATATA [CACACA_site2283] | 9.26
TTTATATTTCAATTTTGTGCTTCGCAAATTGAGAGG [TGCATGCA_negctrl_site327] | 6.77
CACTACATTATGTCATAAATGCATACATAAACATAT [GTGCAC_negctrl_site513] | 7.2
TATAACATAATATAGACACACACATGTACTTATGCC [CACACA_site8547] | 7.08
AATGTTTTTTTTTTTTTTTTTTTTTATTTATTGTTA [CACACA_negctrl_site505] | 6.85
ATCAAATAATAGCAAACACACAAAAAATAAAAAAAA [CACACA_site4146] | 6.91
ATTTTTTGGAAAAGAAGTACAATGGATTTATACGTT [XGTACX_site891] | 7.23
TAACATATAATATTATGTACATATATACATATATAA [XGTACX_site7467] | 7.02
AAAAAATCACGACACACACACACACTAAAAAAAAAA [CACACA_site6792] | 7.18
TTTAAATAATCTAGGTGTACTTTCCTTTATAAATGT [XGTACX_site7859] | 6.9
AGAATACATATATGAACACACAGAGTTTTAAAAAAT [CACACA_site2735] | 6.88
TATTTCAATATATACCTTTGCTTTTTTAATATACTT [XGTACX_negctrl_site556] | 6.96
AATATAAATAAAAACACACACAATGGTACCTATATA [CACACA_site7688] | 7.02
TCAATATAAATTAGTTGTACAGTTTTTTTTAATTAT [XGTACX_site6358] | 6.95
AAGAATTATATATTCACACAAAAAAAAAGTAAAAGA [CACACA_site5335] | 7.17
TATAATATATATATATGTACATATTATTTACATATA [XGTACX_site7312] | 7.29
TTTTAACATAGAAGTACACACATATAATCAATCATA [CACACA_site5313] | 7.17
AAAAAAAAAAAAAAGAGTACATTTATTTATATATCT [XGTACX_site2381] | 7.16
TGTTTAACACATGTTTCAAACAAAAAAAAAAAGACA [CACACA_negctrl_site1356] | 7.08
AATATATTAAATCTTACACACTAAAAAATATGTAAC [CACACA_site4325] | 6.83
TTTTAAATTTTTTAAAGTACACGTCGAAAAGGTATA [XGTACX_site76] | 7.93

Sequence | gcPBM binding intensity (ln)
TTAATTTTTGAAGGTACACACTAATATATTAAATAT [CACACA_site4791] | 7.11
CTTTTAATTATAAAATGTACTTAAAAATAATAATAC [XGTACX_site635] | 7.16
AAAACAGACAAACACACACACACATATATATATATA [CACACA_site3393] | 9.42
TTATCCCCCTATCATTGTACATTAATACAAACTAAA [XGTACX_site5630] | 8.01
AAAATGAAACAAATATGTACACATATAAATATTTCC [XGTACX_site54] | 7.05
TTTTATGAAAAATGGCTTATCTGTAAAGAAGTGGAG [CACACA_negctrl_site1586] | 7.5
ATAAAGAAAATATGGAGTACATTTATATCCAATATA [XGTACX_site3085] | 7.2
ATATTTGTAATTATTAAACACACACTAATTATATAT [CACACA_site8803] | 6.99
AAATATATACTACCGATGCACTAAATATAAACACAT [GTGCAC_site9777] | 8.08
TTATCATTTGGACACGCACACACACCGAAAAAGAAA [CACACA_site8008] | 7.57
TTTTTGTAATTATATTAATATATATATATATATATA [CACACA_negctrl_site198] | 8.96
TTTTTTGCTAAAAAGAGTACTAATAAAAAATTTATT [XGTACX_site5235] | 7.06
AATAATTTAAGGAATACACACAAGAAAAAAATAAGA [CACACA_site60] | 7.16
GAAAACATTAAAAGTTAGATCATAAGAAAAGAATAT [GTGCAC_negctrl_site726] | 7
ACATTATATAAAATATGTACATATAAAAAATTCTAT [XGTACX_site1617] | 7.08
GTTCATCACATATACACATGCATATTCTAATATGTA [TGCATGCA_site809] | 7.33
CATATATGTGATAACACGCACACAAATGTATAGAAT [CACACA_site2594] | 6.99
TATTTATTTATTTATGCATGCATGAATAATTTTTAC [TGCATGCA_site31] | 7.04
ATTATTTAGAAATGAGCACACAAAAAGAAGAATTTT [CACACA_site7913] | 7.03
ACAAGAGAAGTAATTGCACACGTTGTTTCTTTTTCT [CACACA_site35] | 6.94
CCACATATACAAAACACACACACAACGTTTTAATAA [CACACA_site1978] | 7.24
ATAATAATATAAAATACACACCTATTATTTTTACAA [CACACA_site6069] | 6.86
